# Measured values published in ChEMBL document CHEMBL4888484, “Replenishing the malaria drug discovery pipeline: Screening and hit evaluation of the MMV Hit Generation Library 1 (HGL1) against asexual blood stage Plasmodium falciparum ,using a nano luciferase reporter read-out” (2022).
# Hit rate of the full screen: of about 150,000 compounds, about 540 (0.36%) showed an effect of 50% or more. Some of the results follow.
# System: Plasmodium falciparum
# Test: Primary screen in NF54 nanoGlo assay, in single point, at 2uM, 72h; a lower Z score goes with more inhibition
# Format: functional, Erythrocyte
# Details: timepoint 72 hour
SMILES,% Inhibition,Z score
CC(C)c1noc(CN(C)C(=O)CCS(C)(=O)=O)n1,4%,-0.44
N#Cc1ccccc1Oc1ccc(C(=O)N2CC[C@@H](O)C2)cc1Cl,-11%,1.45
COCCN1C(=O)[C@@H]2CC[C@H]1CN(C(=O)c1ccc(OC)c(F)c1F)C2,3%,-0.63
COC(CNC(=O)c1cccnc1)OC,-5%,0.62
C[C@@H](c1nccs1)N1CCN(S(=O)(=O)c2cccc(F)c2F)CC1,5%,-0.57
COC[C@@H](O)CNC(=O)Nc1cccc2c1OC(C)(C)CC2,-10%,1.15
CC[C@@](C)(C(=O)Nc1c(C)cccc1C)N(C(=O)Cn1nnnc1N)c1ccccc1,5%,-0.58
CCOC(=O)NCC(=O)N1CCC(C)CC1,-15%,2.76
O=C(Nc1ccc(Cl)c(Cl)c1)C1=NCCN1,2%,-0.32
O=C(CCc1nc2ccccc2[nH]1)N1CCC[C@H](O)C1,4%,-0.81
O=C(NCc1cccc(Cl)c1O)c1nc(C2CC2)no1,-7%,1.34
COC(=O)N1CCC(C(C)NC(=O)C2CC23CCOCC3)CC1 (stereo not given),3%,-0.46
O=C(c1oc(C2CC2)nc1C(F)F)N1Cc2ccccc2CO1,0%,-0.06
COc1ccc([C@@H]2CCCN2C(=O)c2scnc2C)cc1OC,-9%,0.83
C=C(C)CNC(=O)Nc1ccc(NC(=O)C(C)C)cc1,-8%,1.58
CCn1cc(NC(=O)C2CCN(c3ccccn3)CC2)cn1,-12%,1.09
CCCc1cc(NC(=O)COCCOC)n[nH]1,-5%,0.64
COc1ccc(-n2nc(C(=O)NC3CCCCC3)cc2-c2cccnc2)cc1,-11%,1.47
CC(C)n1ccc(CNC(=O)N2CC[C@H](CC3CC3)C2)n1,-6%,0.97
CCn1nc(C)c(CN2C[C@@H]3CC[C@H]2CN(C(=O)c2ccncc2)C3)c1C,-11%,0.99
Cc1nc(NC(=O)c2ccc(OC3CCOCC3)nc2)sc1C(=O)N(C)C,-1%,0.15
Cc1c(C(=O)NCc2ccccc2)sc2ncnc(N3CCCCCC3)c12,-14%,1.27
CC1CN(C(=O)CN2C(=O)NC(C)(c3ccc(C(C)(C)C)cc3)C2=O)CC(C)O1 (stereo not given),5%,-0.9
C1=CCC(C2OCC(CN3CCCCC3)O2)CC1 (stereo not given),-7%,0.96
N#Cc1ccc(NC2CC2)c(NC(=O)[C@H]2CC23CCCC3)c1,-16%,2.17
C[C@H]1CN(C(=O)c2ccc(-c3ccccc3F)o2)CCS1(=O)=O,5%,-0.74
O=C(C[C@@H]1CCN2C[C@@H]1/C=C\COc1ccccc1CN(CC1CC1)CC2=O)NCCN1CCCC1,-3%,0.51
O=C(NCC1(N2CCCC2)CCCC1)Nc1ccc2[nH]ncc2c1,-1%,0.16

SMILES,% Inhibition,Z score
CC(C)n1cc(NC(=O)c2ccncc2Cl)cn1,-9%,1.57
Cc1ncccc1C(=O)N[C@@H](C)C(C)(F)F,-11%,2.16
N#Cc1ccc(N2CCN3C(=O)NCC3C2)nc1N1CCN2C(=O)NCC2C1 (stereo not given),33%,-4.81
COc1cccc(Cn2ncc3ccc(C(=O)NCc4ccc5c(c4)OCO5)cc32)c1,-18%,3.26
CN(C[C@H]1CCCCO1)C(=O)Nc1cc2c(cc1N(C)C)n(C)c(=O)n2C,11%,-1.02
COC(=O)c1cc(-c2ccncc2)nn1C,-12%,2.23
Cn1cc(-c2ccc(CNC(=O)CC(C)(C)C)cn2)cn1,11%,-1.47
Cc1cc(=O)n2ccn(Cc3nnc(C(C)C)s3)c2n1,-18%,2.34
COc1ccc(C(N)=O)cc1NC1C2CCOC2C12CCC2 (stereo not given),-7%,0.64
CCn1ncc2c1CCC[C@@H]2NC(=O)c1ccc(F)c2cccnc12,-5%,1
CCCn1cc(N[C@@H](C)CC(C)(C)OC)cn1,-13%,1.9
Cc1ccc(-n2cc(CN3[C@@H]4CC[C@H]3CNC(=O)C4)cn2)cc1C,2%,-0.24
Cc1ccccc1C1=NO[C@@H](CN(Cc2cccc(Cl)c2)C(=O)NC(C)(C)C)C1,-15%,2.22
Cn1c(CNC(=O)C2CCC2)nc2c1CN(C(=O)c1ccc(C(F)(F)F)s1)CC2,-3%,0.32
C[C@]1(C(=O)O)CCN(Cc2c[nH]nc2-c2cccc(Cl)c2)C1,11%,-1.42
Cc1ccsc1CNC(=O)CNC1CCOCC1C (stereo not given),-8%,0.8
COc1ccc(OCC(O)CN(CC(C)C)CC(O)COc2ccc(OC)cc2C(C)(C)C)c(C(C)(C)C)c1 (stereo not given),0%,0.03
O=C1N(CCC2CCCCC2)CCC[C@@]1(O)CN1CCCOCC1,-7%,1.27
CCC(=O)N[C@@H]1CC(C(C)(C)NC(=O)CC)CC=C1C (stereo not given in full),-2%,0.23
COCCCn1cnnc1CNC(=O)c1nn(C)c(C)c1Cl,-28%,2.8
Cc1c([C@@H](NCC(=O)N2CCC(C(N)=O)CC2)C(C)C)oc2ccccc12,-13%,1.5
O=C1CCC(Cc2ccccc2)=NN1C1CCC1,-2%,0.21
Cc1oc2ncn(C)c(=O)c2c1C(=O)N1CCN(c2ccccc2F)CC1,-10%,1.58
CC(CNC(=O)NCC1CCC(O)C1)c1cccs1 (stereo not given),-11%,1.46
CCS(=O)(=O)NCC(C)(C)c1ccc(Br)cc1,-8%,1.35
CN(C)Cc1nnc([C@H]2C[C@H](NC(=O)c3ccc(F)cc3F)C2)n1C,6%,-1.08
O=C(NCCCCC(F)(F)F)C1CC12CCc1ccccc12 (stereo not given),-1%,0.12
